{
  "source": "PubChem BioAssay AID463173",
  "about": "(ICCB-Longwood Screening Facility, Harvard Medical School, 2010)",
  "note": "Screen size: about 52,000 compounds; about 1,700 (3.3%) were called active. Cut-off read from the data, not from the text of the source: active = survival mostly below about 52% (no sharp cut-off); inactive = mostly above about 56%. This is one part of the list.",
  "data": [
    {"test_system": "Wild type", "test": "S. aureus survival, RN4220 and DeltatarO strains – OD600, teichoic acid synthesis inhibitors, primary screen (AID 463173)", "details": "S. aureus RN4220 wild type/DeltatarO growth, OD600, 18 h, active compounds read low, screened at 18.75 µg/mL (by protocol)", "values": [
      {"smiles": "CSc1ccc(CC2C(=O)Nc3ccccc32)cc1", "note": "(centres undefined)", "survival": "inactive: 73%"},
      {"smiles": "CCN(CC)C(=O)Cn1cc(/C=C(\\C#N)C(N)=O)c2ccccc21", "survival": "inactive: 124%"},
      {"smiles": "COC(=O)CSc1nnc(-c2ccccc2)n1C", "survival": "inactive: 102%"},
      {"smiles": "O=C(Cc1ccccc1F)N1CCC(c2nc3c(nnn3Cc3ccc(F)cc3)c(=O)[nH]2)CC1", "survival": "inactive: 98%"},
      {"smiles": "O=C(CS(=O)(=O)c1cccc2nsnc12)Nc1cc(F)ccc1F", "survival": "inactive: 97%"},
      {"smiles": "CC(=O)/C=C(\\C)Nc1ccccc1S", "survival": "inactive: 114%"},
      {"smiles": "COc1cc2c(-c3ccc(C)cc3)nc3c(c(C)nn3-c3ccccc3)c2cc1OC", "survival": "inactive: 71%"},
      {"smiles": "N#C/C(=C\\c1ccccc1)C(=O)Nc1sc2c(c1C(N)=O)CCC2", "survival": "inactive: 75%"},
      {"smiles": "CC(C)Oc1ccc(CNC(=O)c2cnc3sc(N4CCCCC4)nn3c2=O)cc1", "survival": "inactive: 135%"},
      {"smiles": "CCc1ccccc1NC(=O)C1COc2ccccc2C1", "note": "(centres undefined)", "survival": "inactive: 83%"},
      {"smiles": "Cn1cnc(S(=O)(=O)N2CCC(C(=O)N3CCN(c4ccc(Cl)cc4)CC3)CC2)c1", "survival": "inactive: 32%"},
      {"smiles": "O=C(Cc1cccs1)NC1CCN(Cc2ccccc2)CC1", "survival": "inactive: 97%"},
      {"smiles": "CC(=O)Nc1ccc(-n2c(CCC(=O)O)ccc2-c2ccc(C)cc2)cc1", "survival": "inactive: 81%"},
      {"smiles": "CCOC(=O)c1oc2ccc(S(=O)(=O)n3nc(-c4cc(OC)cc(OC)c4)cc3N)cc2c1C", "survival": "inactive: 125%"},
      {"smiles": "CCc1ccc(Sc2cc(C(=O)NCCCOC(C)C)c3ccccc3n2)cc1", "survival": "inactive: 71%"},
      {"smiles": "Cc1cc(C)cc(OCC(=O)Nc2ccc(Cl)c(-c3nc4ncccc4o3)c2)c1", "survival": "inactive: 33%"},
      {"smiles": "N#Cc1ccc(OC(=O)c2cc(-c3ccc4c(c3)OCCO4)on2)cc1", "survival": "inactive: 117%"},
      {"smiles": "CCCOC(=O)c1cc(=O)[nH]c2ccccc12", "survival": "inactive: 108%"},
      {"smiles": "CCCn1c(=O)c2sccc2n2c(CCCC(=O)N3CCN(c4cccc(C)c4C)CC3)nnc12", "survival": "inactive: 88%"},
      {"smiles": "Cc1ccc(NC(=O)CSc2nc3c(oc4ccccc43)c(=O)n2Cc2ccco2)cc1", "survival": "inactive: 78%"},
      {"smiles": "Cc1cc(C)cc(-n2ccnc2SCC(=O)Nc2ccc3c(c2)OCO3)c1", "survival": "inactive: 91%"},
      {"smiles": "CN(C(=O)Nc1ccccc1)C12CC3CC(CC(C3)C1)C2", "survival": "inactive: 111%"},
      {"smiles": "CC(=O)N(Cc1cccnc1)c1nc2c(C)cccc2s1", "survival": "inactive: 73%"},
      {"smiles": "Cn1cc(-c2cc3n(n2)CCC(=O)N3CCCC(=O)Nc2ccc(F)cc2F)c2ccccc21", "survival": "inactive: 121%"},
      {"smiles": "COc1cc(C(c2nnnn2C2CCCCC2)N2CCc3ccccc3C2)ccc1O", "note": "(centres undefined)", "survival": "inactive: 103%"},
      {"smiles": "COc1ccc(CCn2c(=O)c3cccnc3n(CC(=O)Nc3cccc(C)c3)c2=O)cc1OC", "survival": "inactive: 92%"},
      {"smiles": "CCOC(=O)C1CCN(C(=O)Cn2nc(C)n3c(cc4cc(C)ccc43)c2=O)CC1", "survival": "inactive: 79%"},
      {"smiles": "COc1ccc(S(=O)(=O)NCc2ccc3c(c2)CCN3C(=O)c2ccc(C)cc2)cc1Cl", "survival": "inactive: 121%"},
      {"smiles": "Cc1cc2nc(-c3ccc(Br)cc3)cc(C(F)(F)F)n2n1", "survival": "inactive: 77%"},
      {"smiles": "Cc1nc2c(C(=O)NCCc3ccc(Cl)cc3)c[nH]n2c(=O)c1Cc1ccccc1F", "survival": "active: -11%"},
      {"smiles": "CCc1ccc(-c2cn3c(n2)sc2cc(C(=O)NCC(C)c4ccccc4)ccc23)cc1", "note": "(centres undefined)", "survival": "inactive: 80%"},
      {"smiles": "Cc1ccc2nc(NS(=O)(=O)c3ccc(Cl)cc3)c(Nc3ccc(C(=O)O)cc3)nc2c1", "survival": "inactive: 106%"},
      {"smiles": "Cc1nnc2c(N3CCN(c4ccccc4)CC3)nc3ccc(C(=O)c4ccccc4)cc3n12", "survival": "inactive: 81%"},
      {"smiles": "CCOC(=O)C1CCCN(S(=O)(=O)c2ccc(Cl)cc2)C1", "note": "(centres undefined)", "survival": "inactive: 113%"},
      {"smiles": "CCc1ccc(N2CCn3c2nc2c3c(=O)n(Cc3c(F)cccc3Cl)c(=O)n2C)cc1", "survival": "inactive: 87%"},
      {"smiles": "CCc1ccc(NS(=O)(=O)c2ccc(C(=O)N(C)C)s2)cc1", "survival": "inactive: 64%"},
      {"smiles": "O=C(C1CC1)N1CCc2cc(Br)cc(S(=O)(=O)N3CCN(c4ccccc4)CC3)c21", "survival": "inactive: 76%"},
      {"smiles": "Cn1c(=O)c2sccc2n2c(CCC(=O)N3CCN(c4cccc(Cl)c4)CC3)nnc12", "survival": "inactive: 151%"},
      {"smiles": "CCCCC(=O)Nc1nnc(S(=O)(=O)N(CC)c2cc(C)cc(C)c2)s1", "survival": "inactive: 89%"},
      {"smiles": "CCCCOC(=O)c1ccc(Nc2nc3ccccc3c3nnc(C)n23)cc1", "survival": "inactive: 19%"},
      {"smiles": "Cc1c(CNCCc2ccc(S(N)(=O)=O)cc2)c(C(=O)O)c(C)n1Cc1ccc(Cl)cc1", "survival": "inactive: 93%"},
      {"smiles": "CCOc1ccc(/C=C(\\C#N)C(=O)Nc2sc3c(c2C(=O)OC)C(C(=O)OC)CC3)cc1OC", "note": "(centres undefined)", "survival": "inactive: 84%"},
      {"smiles": "CC(=NCc1cccnc1)c1c(C)[nH]n(-c2nc3ccccc3s2)c1=O", "survival": "inactive: 102%"},
      {"smiles": "CCC(C)NC(=O)C1CCN(c2ncccn2)CC1", "note": "(centres undefined)", "survival": "inactive: 105%"},
      {"smiles": "CN(C(=O)CSc1nc2ccccc2n1CC(=O)N(C)c1ccc(F)cc1)c1ccccc1", "survival": "inactive: 67%"},
      {"smiles": "CCc1ccccc1NC(=O)Cn1nnc(C(=O)NCc2cccs2)c1N", "survival": "inactive: 96%"},
      {"smiles": "COc1cc(NC(=O)c2cc(-c3ccc(Cl)c(Cl)c3)on2)cc(OC)c1OC", "survival": "inactive: 127%"},
      {"smiles": "COc1ccc(CNCCSc2nnnn2-c2ccccc2)c(OC)c1", "survival": "inactive: 84%"},
      {"smiles": "COc1ccc(N2CCN(C(=O)C3CCN(S(=O)(=O)Cc4ccccc4)CC3)CC2)cc1", "survival": "inactive: 83%"},
      {"smiles": "O=C(CSc1nccn1Cc1ccc(F)cc1)Nc1ccc2c(c1)OCO2", "survival": "inactive: 126%"},
      {"smiles": "Cc1ccc(CNC(=O)CN2C(=O)C3(SCC(=O)N3c3cc(C)cc(C)c3)c3ccccc32)cc1", "note": "(centres undefined)", "survival": "inactive: 65%"},
      {"smiles": "CCOc1ccc(Nc2oc(-c3ccc(COc4ccccc4C)o3)nc2C#N)cc1", "survival": "inactive: 92%"},
      {"smiles": "Cc1nc(-c2cccc(F)c2)sc1CCNC(=O)c1ccc(F)c(F)c1", "survival": "inactive: 73%"},
      {"smiles": "CCN(c1ccccc1)S(=O)(=O)c1ccc(F)c(C(=O)Nc2ccc(C)cc2)c1", "survival": "inactive: 143%"},
      {"smiles": "Cc1ccc(Nc2nnc(-c3ccc(C)c(S(=O)(=O)N4CCCCC4)c3)c3ccccc23)cc1", "survival": "inactive: 107%"},
      {"smiles": "Cc1ccc(CCNC(=O)CN2C(=O)COc3ccc(S(=O)(=O)N4CCCCC4)cc32)cc1", "survival": "inactive: 87%"},
      {"smiles": "Cc1ccc(C(CC(=O)NCC2(c3ccccc3)CCCC2)c2ccccc2)c(O)c1", "note": "(centres undefined)", "survival": "inactive: 36%"},
      {"smiles": "CCOc1ccc2c(c1)[C@@H]1C=CC[C@@H]1[C@H](c1ccccc1Cl)N2", "survival": "active: 0%"},
      {"smiles": "CC(C)(C)OC(=O)N1CCC(c2c(C(=O)Nc3ccc4c(c3)OCCO4)cnn2-c2ccc(F)cc2)CC1", "survival": "inactive: 69%"},
      {"smiles": "Cc1ccc(CNC(C)c2ccccc2)s1", "note": "(centres undefined)", "survival": "inactive: 68%"},
      {"smiles": "COc1ccc(C2C(=O)N(C3CCCCCC3)CC(=O)N2CCc2ccccc2)cc1", "note": "(centres undefined)", "survival": "inactive: 133%"},
      {"smiles": "Cc1cccc(-c2nc3c(cnn3-c3ccccc3)c(=O)n2-c2cccc(Cl)c2)c1", "survival": "inactive: 70%"},
      {"smiles": "O=C(NCCc1ccccc1)c1ccc2c(c1)N(Cc1ccccc1)C(=O)c1ccccc1S2=O", "note": "(centres undefined)", "survival": "inactive: 86%"},
      {"smiles": "CCN(CC)S(=O)(=O)c1ccc2c(c1)c(=O)c(C(=O)N(C)Cc1ccccc1)cn2C", "survival": "inactive: 78%"},
      {"smiles": "CN(C)c1ccc(CNC(=O)c2cc3ccccn3n2)cc1", "survival": "inactive: 66%"},
      {"smiles": "Cc1cc(C)cc(NC(=O)CSc2nnc(COc3ccccc3Cl)o2)c1", "survival": "inactive: 50%"},
      {"smiles": "Cc1ccc(C)c(NC(=O)CCCN2C(=O)COc3ccc(C)cc32)c1", "survival": "inactive: 110%"},
      {"smiles": "CC(C)(C)OC(=O)N1CCC(c2c(C(=O)Nc3cccc(C(F)(F)F)c3)cnn2-c2ccc(F)cc2F)CC1", "survival": "inactive: 55%"},
      {"smiles": "Cn1cnc2c(=O)oc3ccc(S(=O)(=O)N4CCN(c5ccccc5)CC4)cc3c21", "survival": "inactive: 87%"},
      {"smiles": "CC1CCN(S(=O)(=O)c2ccc3ncn(CC(=O)Nc4ccccc4C(F)(F)F)c(=O)c3c2)CC1", "survival": "inactive: 74%"},
      {"smiles": "Cc1nn(-c2ccccc2)c(-n2cccc2)c1C(=O)NCc1ccccc1Cl", "survival": "active: 1%"},
      {"smiles": "COc1ccc(C)cc1NC(=O)c1cc2c(s1)-c1ccccc1SC2", "survival": "inactive: 46%"},
      {"smiles": "CCOC(=O)CC(NC(=O)Cn1nnc(-c2ccc(C(F)(F)F)cc2)n1)c1ccccc1Cl", "note": "(centres undefined)", "survival": "inactive: 93%"},
      {"smiles": "CC(=O)Nc1cc(C(=O)NCc2ccc(F)cc2)ccc1Sc1ccc(C)cc1", "survival": "inactive: 69%"},
      {"smiles": "CCOC(=O)C1CCN(C(=O)CSc2n[nH]c(-c3ccccc3Cl)n2)CC1", "survival": "inactive: 98%"},
      {"smiles": "CN(C)c1ccc(C(CNC(=O)Cc2ccc(Cl)cc2)N2CCOCC2)cc1", "note": "(centres undefined)", "survival": "inactive: 45%"},
      {"smiles": "Cc1cc(OCC(=O)Nc2cnn(CCCC(=O)O)c2)ccc1Cl", "survival": "inactive: 85%"},
      {"smiles": "O=C1CN(C(=O)c2ccc(Cl)cc2Cl)C(c2ccc(F)cc2)c2cc(F)ccc2N1", "note": "(centres undefined)", "survival": "inactive: 74%"},
      {"smiles": "O=C(NCc1cccs1)c1nn(-c2ccccc2)nc1CO", "survival": "inactive: 89%"},
      {"smiles": "CCCn1c2ccccc2c2cnn(CC(=O)Nc3cccc(C(=O)OCC)c3)c(=O)c21", "survival": "inactive: 80%"},
      {"smiles": "CCOc1ccc(CNC(=O)CN2C(=O)CCn3nc(-c4cn(C)c5ccccc45)cc32)cc1OC", "survival": "active: -6%"},
      {"smiles": "Cc1ccc(S(=O)(=O)c2nc(-c3ccco3)oc2SC(C)C)cc1", "survival": "inactive: 49%"},
      {"smiles": "COc1ccc(CCNC(=O)Cc2c(C)c3c(cc(C)c4c(C)c(C)oc43)oc2=O)cc1OC", "survival": "inactive: 87%"},
      {"smiles": "Cc1ccc(NC(=O)Cn2c(=O)n(-c3ccc(C)cc3)c(=O)c3ccc(C(=O)NCc4ccccc4Cl)cc32)cc1", "survival": "inactive: 59%"},
      {"smiles": "Cc1ccc(NC(=O)CN2Cc3ccccc3C2=O)c(C)c1", "survival": "inactive: 72%"},
      {"smiles": "COc1ccc(NC(=O)c2cc(-c3ccc4c(c3)OCO4)on2)c(OC)c1", "survival": "inactive: 75%"},
      {"smiles": "CCOC(=O)c1cccc(NC(=O)CCS(=O)(=O)c2ccc(Br)s2)c1", "survival": "inactive: 88%"},
      {"smiles": "CC(=O)Nc1nonc1-c1nnc(SCc2ccc(F)cc2Cl)n1C", "survival": "inactive: 84%"},
      {"smiles": "Cc1cc(C)cc(NC(=O)c2sc3nc(-c4ccccc4)cn3c2C)c1", "survival": "inactive: 135%"}
    ]}
  ]
}
